From publication PMC11595209
No constants are given. Whether binding was seen depends on the method and setting. In cells and extracts the contact can be indirect. Some results given as binding are weak or reduced against the parent protein; the word gives no strength. For part of these data: Tags and fused reporters may be left off the sequences shown.

Protein sequences, listed by entry. Tags and fused reporters are not part of them.
UniProt P03545: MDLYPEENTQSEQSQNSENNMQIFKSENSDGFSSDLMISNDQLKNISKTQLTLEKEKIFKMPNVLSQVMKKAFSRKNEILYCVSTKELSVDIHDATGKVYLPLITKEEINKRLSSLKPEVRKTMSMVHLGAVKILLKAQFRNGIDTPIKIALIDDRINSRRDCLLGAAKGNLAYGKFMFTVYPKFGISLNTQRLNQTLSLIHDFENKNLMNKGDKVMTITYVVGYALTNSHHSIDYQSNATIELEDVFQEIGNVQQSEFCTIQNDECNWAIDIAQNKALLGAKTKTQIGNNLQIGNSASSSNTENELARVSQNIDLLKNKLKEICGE
UniProt Q00271: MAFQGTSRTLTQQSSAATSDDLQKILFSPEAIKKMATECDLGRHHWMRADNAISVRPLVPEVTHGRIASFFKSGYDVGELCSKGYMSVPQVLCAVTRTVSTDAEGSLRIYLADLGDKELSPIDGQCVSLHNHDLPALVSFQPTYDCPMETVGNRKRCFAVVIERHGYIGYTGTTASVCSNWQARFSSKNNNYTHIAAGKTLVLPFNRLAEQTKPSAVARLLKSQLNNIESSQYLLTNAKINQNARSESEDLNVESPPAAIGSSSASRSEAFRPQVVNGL
UniProt A0A1S3YFP6: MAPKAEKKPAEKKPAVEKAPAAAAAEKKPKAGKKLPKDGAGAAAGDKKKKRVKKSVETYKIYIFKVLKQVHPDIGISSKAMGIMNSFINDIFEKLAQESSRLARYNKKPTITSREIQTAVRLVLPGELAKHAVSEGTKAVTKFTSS

What was measured:
Experiment in all cases: split reporter; BiFC with NtGFP and CtGFP fragments of EGFP fused at the N- or C-terminus of each protein; co-agroinfiltration of N. benthamiana leaves (OD600 0.4, mixed in equal proportions); confocal microscopy
[1] = molecular target: cauliflower mosaic virus (CaMV) movement protein, BiFC fusion (cauliflower mosaic virus) (UniProt P03545)
[2] = molecular target: cucumber mosaic virus (CMV) movement protein, BiFC fusion (cucumber mosaic virus) (UniProt Q00271)
[3] = molecular target: T1, N. tabacum peroxidase, BiFC fusion (N. tabacum)
T1 sequence: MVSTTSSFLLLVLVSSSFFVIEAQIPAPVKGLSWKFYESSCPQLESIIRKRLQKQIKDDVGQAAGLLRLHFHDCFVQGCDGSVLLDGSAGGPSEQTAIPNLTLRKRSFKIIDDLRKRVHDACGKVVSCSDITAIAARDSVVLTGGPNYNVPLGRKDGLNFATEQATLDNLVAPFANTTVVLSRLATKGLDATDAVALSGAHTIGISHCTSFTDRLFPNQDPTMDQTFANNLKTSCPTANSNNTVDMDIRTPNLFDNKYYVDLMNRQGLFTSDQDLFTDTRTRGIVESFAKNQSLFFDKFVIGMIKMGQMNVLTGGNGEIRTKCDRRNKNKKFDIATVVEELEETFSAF

[4] = molecular target: T2, N. tabacum 14-3-3A protein, BiFC fusion (N. tabacum)
T2 sequence: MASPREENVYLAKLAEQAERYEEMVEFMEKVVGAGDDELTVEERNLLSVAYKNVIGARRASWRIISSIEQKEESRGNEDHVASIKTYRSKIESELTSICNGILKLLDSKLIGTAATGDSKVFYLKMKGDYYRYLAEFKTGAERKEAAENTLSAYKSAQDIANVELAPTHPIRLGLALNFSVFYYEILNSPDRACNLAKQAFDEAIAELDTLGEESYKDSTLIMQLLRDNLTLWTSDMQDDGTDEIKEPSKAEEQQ

[5] = molecular target: N. tabacum actin, BiFC fusion (N. tabacum)

Substance | binding [1] | binding [2] | binding [3] | binding [4] | binding [5]
N. tabacum peroxidase, BiFC fusion (from UniProt A0A1S4BIW4 1-348) | no binding | no binding | – | – | –
N. tabacum actin, BiFC fusion (from UniProt A0AC58SQG1 1-377) | – | – | binds | binds | –
N. tabacum histone 2B-like, BiFC fusion (from UniProt A0A1S3YFP6 1-146) | binds | binds | binds | binds | binds
